# Measured values: PubChem BioAssay AID924 (National Center for Advancing Translational Sciences (NCATS), 2007)
# The whole screen tested about 130,000 compounds, of which about 1,200 (0.92%) were called active. The inconclusive results got no clear call from the source; some entries with a clear call stand among them for comparison. The call rests on the fitted dose curve; in most records, active means well fitted cell-killing curve with a large enough effect; inconclusive means small, poorly fitted or top-dose-only effect; inactive means no such curve, though single readings can be large or run the other way. A potency beside an inconclusive call is a rough fit, not a confirmed value.
# Assay: qHTS Screen for Compounds that Selectively Target Cancer Cells with p53 Mutations: Cytotoxicity of p53ts Cells at the Permissive Temperature; further: nearly all actives have a fitted effect of over 55% in size;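 on activity change, negative = cytotoxicity: 0% = DMSO and -100% = full killing by reference compound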
# Settings: H1299-p53A138V at 32C, ATP luminescence viability, 24 h; activity change, negative = cytotoxicity: at 46.1 µM (top of the series)
# In short: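 Viability by ATPlite luminescence after 24 h compound treatment (up to 46 uM) at the permissive 32C. Cells are H1299 carrying p53 A138V. Scale runs from DMSO basal to 100 uM tamoxifen as full kill; AC50 from Hill fits.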
# Potency means the concentration at half of the fitted maximal effect; tags describe the fitted curve by direction and shape.
SMILES,Potency,"activity change, negative = cytotoxicity"
COc1ccccc1NC(=O)N1CCC(c2nc3cc(C)c(C)cc3[nH]2)CC1,"inconclusive: 35.5 µM [cytotoxic, single point]",–
O=C(COC(=O)c1c2c(nc3ccccc13)CCCC2)Nc1ccc2c(c1)OCO2,"inconclusive: 31.6 µM [cytotoxic, single point]",–
COc1ccc(-c2cc(C(=O)N3CCN(c4ccccn4)CC3)c3ccccc3n2)cc1,active: 12.6 µM,–
CCOc1ccc2c(c1)c(=O)c(S(=O)(=O)c1ccccc1)cn2CC(=O)Nc1ccccc1OC,–,inactive: 2.76%
O=C(O)c1cc(-c2ccc(C(F)(F)F)cc2)nc2n[nH]c(-c3ccccc3)c12,"inconclusive: 10 µM [cytotoxic, partial curve]",–
Cc1nc2sc(C(c3cccs3)N3CCOCC3)c(O)n2n1 (stereo unspecified),active: 12.6 µM,–
O=C(CN1C(=O)C2(SCC(=O)N2c2cccc(Cl)c2)c2ccccc21)NCCc1ccccc1 (stereo unspecified),–,inactive: 2.97%
Cc1ccc(Nc2c(-c3c[nH]c4ccccc34)nc3ccccn23)cc1,"inconclusive: 11.2 µM [cytotoxic, partial curve, poor fit]",–
Cc1ccc(NC(=O)Cn2c(=O)n(Cc3ccccc3)c(=O)c3sc4ccccc4c32)cc1,–,inactive: -3.89%
COc1ccc(OC)c(CCNC(=O)c2cc3c(s2)-c2c(C)cccc2OC3)c1,–,inactive: 12%
COC(=O)c1ccc(NC(=O)c2cccc(OC)c2)cc1,active: 12.6 µM,–
O=C(c1ccc(F)cc1)c1cn(Cc2ccccc2F)c2cc3c(cc2c1=O)OCCO3,–,inactive: 5.58%
Cc1cccc(-c2nc(CN3CCCC(C(=O)N4CCN(c5cc(Cl)ccc5C)CC4)C3)c(C)o2)c1 (stereo unspecified),–,inactive: -25.2%
Cc1ccc(CSc2nc3cccnc3n2Cc2ccc(C(=O)NCc3ccco3)cc2)cc1,active: 5.62 µM,–
CC(C)(C)C(=O)Nc1ccc(-c2nc3ccc(NC(=O)C(C)(C)C)cc3[nH]2)cc1,active: 7.94 µM,–
Cc1nn2c3cc(N4CCOCC4)ccc3nc2c2ccccc12,active: 2 µM,–
CC(=O)Oc1ccc(N2C(=O)C3C(C2=O)C2(C)C=CC3(C)O2)cc1 (stereo unspecified),"inconclusive: 31.6 µM [cytotoxic, single point]",–
Cc1ccc(OCc2nc(-c3ccccc3)no2)c(C)c1,–,inactive: -16%
Cc1oc(-c2ccc(Cl)cc2)nc1CN1CCCC(C(=O)NCCc2ccc(Cl)cc2)C1 (stereo unspecified),"inconclusive: 25.1 µM [cytotoxic, single point]",–
Cc1ccc(S(=O)(=O)c2c(O)cc(C)c(NS(=O)(=O)c3ccc(Br)cc3)c2C)cc1,–,inactive: 20.7%
c1ccc(Nc2nc(-c3cccnc3)cs2)nc1,"inconclusive: 10 µM [cytotoxic, partial curve]",–
O=C(c1ccccc1)c1ccc(N2CCCC2)cc1,"inconclusive: 15.8 µM [cytotoxic, single point]",–
O=c1cc(-c2ccccc2O)oc2ccc3ccccc3c12,active: 2.51 µM,–

SMILES,Potency,"activity change, negative = cytotoxicity"
Cc1nn(C)cc1/C=C/C(=O)c1cccs1,active: 12.6 µM,–
COc1ccc(NC(=O)c2c(NCc3cccs3)sc3c2CCC(C)C3)c(OC)c1 (stereo unspecified),"inconclusive: 12.6 µM [cytotoxic, partial curve, poor fit]",–
O=C(CS(=O)(=O)c1cccc2nsnc12)Nc1ccccc1Cl,–,inactive: 10.7%
Cc1ccc(NC(=O)c2c(C)cc(C)nc2SCC(=O)Nc2ccc(Br)cc2)cc1,"inconclusive: 5.62 µM [cytotoxic, single point]",–
CCOc1ccc(-c2cc3c(=O)n(CC(=O)NCc4ccc(C)cc4)ccn3n2)cc1,–,inactive: 0.933%
COc1ccc(OCC(=O)Nc2ccc3c(c2)nc(CCN2CCOCC2)n3C)cc1,"inconclusive: 25.1 µM [cytotoxic, single point]",–
COc1ccc(CCNC(=O)CCn2c(=O)c3ccccc3n(Cc3ccccc3F)c2=O)cc1OC,"inconclusive: 31.6 µM [cytotoxic, single point]",–
O=C(Nc1ccc2c(c1)OCCO2)NC12CC3CC(CC(C3)C1)C2,"inconclusive: 12.6 µM [cytotoxic, single point]",–
Cc1ccc(NC2=C/C(=N\S(=O)(=O)c3cccs3)c3ccccc3C2=O)c(C)c1,active: 3.16 µM,–
CC(=O)OC[C@@H]1O[C@@H](O/N=C2/C[C@@H](O)[C@@H](O)[C@@H]3[C@@H]4C(=O)N(Cc5ccccc5)C(=O)[C@H]4CC[C@H]23)[C@H](OC(C)=O)[C@H](OC(C)=O)[C@@H]1OC(C)=O,–,inactive: 3.62% [at 9.22 µM]
CC1CCCN(C(=O)c2cc3ccc4cccnc4c3[nH]2)C1 (stereo unspecified),active: 0.794 µM,–
CC(C)(C)C1CCc2c(sc(NC(=O)c3cc4ccccc4c(=O)o3)c2C(N)=O)C1 (stereo unspecified),–,inactive: 3.08%
Cc1cnc(CNc2ncncc2-c2ccc3c(c2)OCO3)cn1,–,inactive: 6.38%
c1ccc2c(c1)oc1c(Nc3ccc(CN4CCOCC4)cc3)ncnc12,"inconclusive: 31.6 µM [cytotoxic, single point]",–
Cc1ccccc1OCC(=O)Nc1ccc(-c2nc3ccccc3o2)cc1,–,inactive: 6.18%
Cc1cccc(N(C)C(=O)Cn2c(=O)oc3cc(S(=O)(=O)N4CCCCC4)ccc32)c1,–,inactive: -2.18%
Cc1ccc(OCC(=O)N/N=C\c2c(C)[nH]n(-c3ccccc3)c2=O)c([N+](=O)[O-])c1,"inconclusive: 35.5 µM [cytotoxic, single point]",–
COc1ccc(-c2noc(-c3ccco3)n2)cc1OC,"inconclusive: 10 µM [cytotoxic, single point]",–
COc1ccc(-c2ccc(SCC(=O)N3CCOCC3)nn2)cc1OC,"inconclusive: 20 µM [cytotoxic, partial curve]",–
Cc1cc(C)c(OCC(=O)N(Cc2ccc(N(C)C)cc2)Cc2ccco2)c(C)c1,"inconclusive: 12.6 µM [cytotoxic, partial curve]",–
O=C(Nc1ccc(NC(=O)c2ccco2)cc1)c1cnccn1,"inconclusive: 20 µM [cytotoxic, single point]",–
COc1ccc2nc(NC(=O)CSc3nc4cccnc4n3C)sc2c1,"inconclusive: 25.1 µM [cytotoxic, single point]",–
O=C(Nc1ccccc1NC(=O)c1c(F)c(F)c(F)c(F)c1F)c1c(F)c(F)c(F)c(F)c1F,"inconclusive: 15.8 µM [cytotoxic, single point]",–
